Our source for the IC50 values is PMC10201506 (Signal Transduction and Targeted Therapy, 2023).

Experiment [1] deals with SARS-CoV-2 nsp16/10 (Severe acute respiratory syndrome coronavirus 2, UniProt P0DTD1). Put plainly: SARS-CoV-2 nsp16/10 inhibition. The class given is biochemical. Conditions: text: viral life cycle related targets.
Experiment [2] addresses trypsin (Homo sapiens, UniProt P07477). To be noted: read-out: IC50 Trypsin/serine.

Molecules are shown by their SMILES.

For `O=C(c1cc(=O)[nH]c2ccccc12)N1CCN(c2ccc(Cl)c(Cl)c2)CC1CN1CCOCC1` (centres unmarked) [JZD-07, 4-(4-(3,4-Dichlorophenyl)-2-(morpholinomethyl)piperazine-1-carbonyl)quinolin-2(1H)-one], in experiment [1], the IC50 is more than 100 µM.
As for `CC(C)(C)[C@H](NC(=O)C(F)(F)F)C(=O)N1C[C@H]2[C@@H]([C@H]1C(=O)N[C@H](C#N)C[C@@H]1CCNC1=O)C2(C)C` [PF-07321332], in experiment [2], the IC50 is more than 100 µM.
